In PubChem BioAssay AID686978 (National Center for Advancing Translational Sciences (NCATS), 2013):
Out of some 420,000 compounds screened, about 64,000 (15%) were called active. Inconclusive means that the source gave no clear call. Such entries were picked first, then a sample of the others. Calls follow the shape of the dose curve; as a rule, active = well fitted inhibition curve with a large enough effect; inconclusive = small, poorly fitted or top-dose-only effect; inactive = flat fitted curve, though single readings scatter. Potencies of inconclusive entries are left out as doubtful fits.

Experiment: qHTS for Inhibitors of human tyrosyl-DNA phosphodiesterase 1 (TDP1): qHTS in cells in absence of CPT; also: nearly all actives have a fitted effect of over 55% in size
Conditions: DT40 Tdp1-/- hTDP1 cells, no CPT, ATP luminescence, 48 h; activity change, negative = growth inhibition: at 46.2 µM (top of the series) unless noted
Summary of the method: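 A cellular qHTS used chicken DT40 cells lacking endogenous Tdp1 but carrying stably transfected human TDP1. Compounds were applied without camptothecin, and cell growth kinetics were judged by ATP-dependent luminescence after ≥48 hr.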
% is scaled to controls: 0 for no effect and ±100 for the full control effect; potency is read from the fitted curve at half-maximal effect; tags tell the direction and shape of the fitted curve.

Compound	Potency	activity change, negative = growth inhibition
COc1ccc(Cl)cc1Cn1c(C)c(C(=O)NCc2ccc(F)cc2)sc1=O	inconclusive [inhibitor, single point]	
O=C(NCCc1cccc(F)c1)[C@@H]1CSC2c3ccccc3C(=O)N21 (some centres not stated)		inconclusive: -30.6% [inhibitor]
CCOc1cc2[nH]c(=O)n(Cc3cccc(OC)c3)c(=O)c2cc1OCC	inconclusive [inhibitor, single point]	
CCN(CC)S(=O)(=O)c1ccc2nc(NC(=O)c3ccccc3OC)sc2c1	active: 5.17 µM	
Cc1nnc(N2CCC(C(=O)NCc3ccc(F)cc3)CC2)c2nn(-c3ccc(Cl)cc3)c(C)c12	inconclusive [inhibitor, single point]	
S=C(Nc1ccccc1)N1CCc2ccccc21		inactive: -0.829%
CC1Cc2cc(/C=C3/SC(=S)N(C)C3=O)ccc2O1 (configuration not stated)	inconclusive [inhibitor, single point]	
COc1ccc(CN2CCN(c3ncccn3)CC2)c(C)c1C	inconclusive [inhibitor, partial curve, poor fit]	
CCOC(=O)c1ccc(NC(=O)c2nc[nH]c2C(=O)N2CCN(c3ccccc3)CC2)cc1	inconclusive [inhibitor, partial curve]	
CC(C)NS(=O)(=O)c1cc(C(F)(F)F)ccc1/C=C/C(=O)O	inconclusive [inhibitor, single point]	
COc1ccc(OC)c(S(=O)(=O)NC(C)(C)C)c1		inactive: -11.7%
O=C(CCN1C(=O)C2C3CC(C(Br)C3Br)C2C1=O)OCC(=O)c1ccccc1 (configuration not stated)	inconclusive [inhibitor, single point]	
Cc1cccc(NC(=O)COC(=O)c2ccccc2OCc2cccc(Br)c2)c1	active: 22.4 µM	
COc1cccc(N(C(=O)c2snc(C(N)=O)c2N)C(C(=O)NCc2ccccc2)c2ccc(O)cc2)c1 (configuration not stated)	active: 18.4 µM	
Cc1ccc(S(=O)(=O)N2CCCCC2)cc1NC(=O)COC(=O)C1=COCCO1		inactive: -6.66%
Cc1ccc2c(c1)cc(C(=O)NCc1ccc(F)cc1)n2C	inconclusive [inhibitor, partial curve]	
CC1CCCC(N2CCN(S(=O)(=O)c3ccccc3)CC2)C1 (configuration not stated)	inconclusive [inhibitor, single point]	
COc1cc(NC(=O)CN(C)C2CCCCC2)c(C)cc1[N+](=O)[O-]	inconclusive [inhibitor, single point]	
COc1ccc(/C=C2/N=C3CCCCCN3C2=O)cc1OC	active: 29.1 µM	
CN(CC(=O)Nc1ccc(S(=O)(=O)N2CCCC2)cc1)Cc1c(F)cccc1Cl	active: 16.4 µM	
OCCC1CN(Cc2cccc(C(F)(F)F)c2)CCN1Cc1ccccc1 (configuration not stated)	inconclusive [inhibitor, single point]	
COc1ccccc1N1CCN(S(=O)(=O)c2cc(-c3cc(C)no3)ccc2C(C)C)CC1	inconclusive [inhibitor, single point]	
Cc1[nH]c2c(Cl)cccc2c(=O)c1CN1CCCCCC1		inactive: -15.6%
Cc1ccc2[nH]c(=O)c(-c3nc4c(C)cccn4c3NCc3ccco3)cc2c1	inconclusive [inhibitor, partial curve]	

Compound	Potency	activity change, negative = growth inhibition
NC(=NCCc1c[nH]c2ccccc12)NC(=O)c1ccc(F)cc1	inconclusive [inhibitor, single point]	
CCOCC(=O)Nc1ccc(-c2cn3c(C)csc3n2)cc1	inconclusive [inhibitor, partial curve]	
COc1ccc2c(c1)C=C/C2=C\c1ccc(N(C)C)cc1	inconclusive [inhibitor, partial curve, poor fit]	
Cc1nonc1C1CCCN1C(=O)c1cc(COc2ccc(F)cc2Cl)on1 (configuration not stated)	inconclusive [inhibitor, single point]	
COc1ccccc1N1CCN(c2ccc(=O)n(CC(=O)O)n2)CC1		inactive: -15.9%
COc1ccccc1OCC(=O)NCCS(=O)(=O)N1CCN(c2ccccc2)CC1	inconclusive [inhibitor, single point]	
O=C(NCc1ccccn1)C1CCC(=O)N1C1CCCCC1 (configuration not stated)		inactive: -6.22%
COC(=O)CCCOc1ccc(Cl)cc1Cl		inactive: 4.23%
Cc1cnc(NC(=O)c2cc(S(=O)(=O)N(C)C)ccc2N2CCCC2)s1	inconclusive [inhibitor, partial curve, poor fit]	
COc1cccc(OCCNc2cc(Cl)ccc2[N+](=O)[O-])c1		inactive: -0.18%
COc1cccc(CNc2ncnc3c2nnn3C)c1	inconclusive [inhibitor, single point]	
CO[C@H]1CN(C)C(=O)c2cc(NC(=O)c3cc(C)on3)ccc2OC[C@@H](C)N(C(=O)C2CC2)C[C@H]1C		inactive: -6.79%
O=C(c1cccc(F)c1)N1CCC2(CCCN(c3ccccc3)C2)CC1	inconclusive [inhibitor, single point]	
Cc1ncc2c(c1CNC(=O)c1ccc3c(c1)OCO3)CCN(C(=O)c1cc3ccccc3n1C)C2		inactive: -17.3%
COc1ccc(-c2c(C)c3cc(O)ccc3oc2=O)cc1		inconclusive: -31.7% [inhibitor]
O=C(N/N=C1/CC(c2ccccc2)Oc2ccccc21)C1CC1 (configuration not stated)	inconclusive [inhibitor, partial curve]	
Cc1cccc(C(=O)NCCC(=O)Nc2ccc(F)c([N+](=O)[O-])c2)c1	inconclusive [inhibitor, single point]	
O=C(Nc1cccc(Oc2ccccc2)c1)C1Cc2c(-c3ccc4c(c3)OCO4)ccnc2O1 (configuration not stated)	inconclusive [inhibitor, single point]	
CC(=O)Nc1ccc(N=Cc2c(O)ccc3ccccc23)cc1		inactive: 10.3%
COc1ccc(C)cc1Nc1nc(C)nc2c1oc1ccccc12	inconclusive [inhibitor, single point]	
O=C1N/C(=N/NC(=O)c2cccc3ccccc23)S/C1=C\c1ccccc1OCc1ccccc1	inconclusive [inhibitor, single point]	
Fc1ccc(NC(=S)NCc2ccccc2Cl)cc1		inactive: -3.82%
c1ccc(-c2csc(Nc3nc(N4CCOCC4)nc(N4CCOCC4)n3)n2)cc1	active: 10.3 µM	
CC(C)(C)c1ccc(C(=O)NC(=O)COC(=O)CCS(=O)(=O)c2ccccc2)cc1		inactive: -6.2%

Compound	Potency	activity change, negative = growth inhibition
COC(=O)c1c(C(=O)OC)c(-c2ccc(OC)cc2)n2c1CS(=O)(=O)C2		inactive: 11.3%
O=C(NCCCN1CCN(CCCNC(=O)c2cccc(Cl)c2)CC1)c1cccc(Cl)c1	inconclusive [inhibitor, partial curve]	
CCCOc1ccccc1C1NC(=O)NC(C)=C1C(=O)OCCOC (configuration not stated)		inactive: -21.9%
CC(C(=O)Nc1ccc(C#N)cc1)N(C)CC(=O)N(C)c1c(N)n(Cc2ccccc2)c(=O)[nH]c1=O (configuration not stated)		inactive: -15.8%
Cc1cc(C)cc(N(C(=O)Cc2cccs2)C(C(=O)NC2CCCCC2)c2ccccn2)c1 (configuration not stated)	inconclusive [inhibitor, partial curve]	
O=C(CCc1ccc(S(=O)(=O)NCc2ccccc2)cc1)NCC1CCCO1 (configuration not stated)	inconclusive [inhibitor, partial curve]	
O=c1[nH]nc(SCc2ccccc2)n1C1CC2C=CC1C2 (configuration not stated)		inactive: -20.1%
Fc1ccc(-c2csc3ncnc(Cl)c23)cc1	inconclusive [inhibitor, partial curve]	
O=c1[nH]c(/C=C/c2ccccc2OC(F)F)nc2c1cnn2-c1ccccc1	inconclusive [inhibitor, partial curve, poor fit]	
Cc1c(C(=O)NN2CCCCC2)nn(-c2ccc(Cl)cc2Cl)c1-c1ccc(I)cc1	active: 29.9 µM	
CC(=O)CSc1nc2cc3c(cc2cc1C#N)OCCO3	inconclusive [inhibitor, partial curve]	
COc1ccccc1-c1cc(NC(C)=O)c2ncc(-c3cccc(C(F)(F)F)c3)n2c1	active: 20.6 µM	
CCOc1ccc(NC(=O)CN(C)C(=O)c2ccc(N3CCCCC3)c([N+](=O)[O-])c2)cc1OCC	inconclusive [inhibitor, single point]	
CCC(C)N=C1Sc2nc3ccc(C)cc3cc2CN1CCOC (configuration not stated)	inconclusive [inhibitor, single point]	
O=C(Cc1cccc(C(F)(F)F)c1)Nc1ccc(S(=O)(=O)N2CCCC2)cc1	inconclusive [inhibitor, single point]	
COc1ccccc1C(=O)Nc1cccc(OCc2cc(=O)n3c4c(sc3n2)CCCC4)c1		inactive: -3.84%
COc1ccc(-c2nnc(OCc3ccccc3)c3ccccc23)cc1	inconclusive [inhibitor, single point]	
CCCCc1c(C)nn(-c2nnc3c4ccccc4n(CC)c3n2)c1C	inconclusive [inhibitor, single point]	
Nc1nc(N)c2cc(Sc3ccc(Cl)cc3)ccc2n1	active: 1.03 µM	
O=C(c1cc(-c2ccccc2)nc2ccccc12)N1CCOCC1		inactive: -7.64%
CN(C)CCn1c2ccccc2c2nc3ccc([N+](=O)[O-])cc3cc21	active: 2.91 µM	
CCOc1ccc(C2C(C(N)=O)=C(C)Nc3nc(-c4ccc(OC)cc4)nn32)cc1 (configuration not stated)		inactive: -6.85%
CCOC(=O)c1ccc(NC(=S)Nc2ccccn2)cc1	active: 14.6 µM	
CCCCn1c(SCC(=O)NC2CCS(=O)(=O)C2)nc2ccccc2c1=O (configuration not stated)		inactive: 21.4%
